{"source": "the supplement of paper PMC12067230", "note": "Single values of this set are uncertain.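 Further: [psi-pin-] Saccharomyces cerevisiae expressing SupN fusions, induced by 100 µM Cu2SO4, selected 7 d at 30 °C without adenine and uracil, scored by deep sequencing of output versus input.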"}
{"test": "amyloid nucleation score relative to library mode (yeast Sup35 reporter selection) (log enrichment difference); higher = more amyloid nucleation", "conditions": "random library (experiment): 1;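 active = nucleation score significantly above 0 at FDR 0.05; inactive = not significantly above 0 or absent from output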"}
{"sequence": "EASNCFAIRHFENKFAVETLICIEAGDTNSGHPV", "amyloid nucleation score": -0.102}
{"sequence": "EASNCFAIRHFENKFAVETLICIEAGNESRCRVA", "amyloid nucleation score": 5.42}
{"sequence": "EASNCFAIRHFENKFAVETLICIECTVWKHLRVW", "amyloid nucleation score": 3.86}
{"sequence": "EASNCFAIRHFENKFAVETLICIEHSLTSLTRII", "amyloid nucleation score": "inactive"}
{"sequence": "EASNCFAIRHFENKFAVETLICIELGFGESGGDR", "amyloid nucleation score": 2.96}
{"sequence": "EASNCFAIRHFENKFAVETLICIEMLKIVMKCLV", "amyloid nucleation score": "inactive"}
{"sequence": "EASNCFAIRHFENKFAVETLICIERSNSGVRRGH", "amyloid nucleation score": "inactive"}
{"sequence": "EASNCFAIRHFENKFAVETLICIEVGRQVRRRPW", "amyloid nucleation score": "inactive"}
{"sequence": "EASNCFAIRHFENKFAVETLICIEVSRQRIALVI", "amyloid nucleation score": "inactive"}
{"sequence": "EASNCFAIRHFENKFAVETLICIEYENKLSLTSG", "amyloid nucleation score": 4.57}
{"sequence": "EASNCFAIRHFENKFAVETLICIFEH", "amyloid nucleation score": 7.2}
{"sequence": "EASNCFAIRHFENKFAVETLICIFGMRLNAMLLS", "amyloid nucleation score": "inactive"}
{"sequence": "EASNCFAIRHFENKFAVETLICIFRKVSLLHCEV", "amyloid nucleation score": "inactive"}
{"sequence": "EASNCFAIRHFENKFAVETLICIFVN", "amyloid nucleation score": "inactive"}
{"sequence": "EASNCFAIRHFENKFAVETLICIFVRWSERGGSA", "amyloid nucleation score": 4.01}
{"sequence": "EASNCFAIRHFENKFAVETLICIFVYLRDAHVGI", "amyloid nucleation score": "inactive"}
{"sequence": "EASNCFAIRHFENKFAVETLICIGFGWPRRARRG", "amyloid nucleation score": 8.32}
{"sequence": "EASNCFAIRHFENKFAVETLICIGGIHSSELWIR", "amyloid nucleation score": 5.42}
{"sequence": "EASNCFAIRHFENKFAVETLICIGGQYERSGLWS", "amyloid nucleation score": 1.23}
{"sequence": "EASNCFAIRHFENKFAVETLICIGHLWTSDYCRM", "amyloid nucleation score": 3.82}
{"sequence": "EASNCFAIRHFENKFAVETLICIGKFCSRCLRGS", "amyloid nucleation score": "inactive"}
{"sequence": "EASNCFAIRHFENKFAVETLICIGMADRVRGAWR", "amyloid nucleation score": 3.51}
{"sequence": "EASNCFAIRHFENKFAVETLICIGMSMAYGVGQR", "amyloid nucleation score": "inactive"}
{"sequence": "EASNCFAIRHFENKFAVETLICIGQRECR", "amyloid nucleation score": "inactive"}
{"sequence": "EASNCFAIRHFENKFAVETLICIGQRS", "amyloid nucleation score": "inactive"}
{"sequence": "EASNCFAIRHFENKFAVETLICIGTGEKLVWRAL", "amyloid nucleation score": 3.54}
{"sequence": "EASNCFAIRHFENKFAVETLICIGVRDSKTYFTT", "amyloid nucleation score": "inactive"}
{"sequence": "EASNCFAIRHFENKFAVETLICIGVSGPRRVRAH", "amyloid nucleation score": "inactive"}
{"sequence": "EASNCFAIRHFENKFAVETLICIHAYSHVRMLSE", "amyloid nucleation score": "inactive"}
{"sequence": "EASNCFAIRHFENKFAVETLICIHLKV", "amyloid nucleation score": "inactive"}
{"sequence": "EASNCFAIRHFENKFAVETLICIHVRMFERYL", "amyloid nucleation score": 1.38}
{"sequence": "EASNCFAIRHFENKFAVETLICIHVWCDPSHHVQ", "amyloid nucleation score": "inactive"}
{"sequence": "EASNCFAIRHFENKFAVETLICIIAFRKRTRSEP", "amyloid nucleation score": "inactive"}
{"sequence": "EASNCFAIRHFENKFAVETLICIIFSGYMMRSPG", "amyloid nucleation score": "inactive"}
{"sequence": "EASNCFAIRHFENKFAVETLICIISMVFFGCLHS", "amyloid nucleation score": "inactive"}
{"sequence": "EASNCFAIRHFENKFAVETLICIIYCELL", "amyloid nucleation score": -0.146}
{"test": "amyloid nucleation score relative to library mode (yeast Sup35 reporter selection) (log enrichment difference); higher = more amyloid nucleation", "conditions": "random library (experiment): 2"}
{"sequence": "EASNCFAIRHFENKFAVETLICIDWWFS", "amyloid nucleation score": -0.174}
{"sequence": "EASNCFAIRHFENKFAVETLICIE", "amyloid nucleation score": "inactive"}
{"sequence": "EASNCFAIRHFENKFAVETLICIEGRKHSGEGLS", "amyloid nucleation score": "inactive"}
{"sequence": "EASNCFAIRHFENKFAVETLICIENEGRWLRRFV", "amyloid nucleation score": 2.15}
{"sequence": "EASNCFAIRHFENKFAVETLICIENHLHVEVSST", "amyloid nucleation score": 5.91}
{"sequence": "EASNCFAIRHFENKFAVETLICIEQIHEPCYVRV", "amyloid nucleation score": "inactive"}
{"sequence": "EASNCFAIRHFENKFAVETLICIERLRLTACRFV", "amyloid nucleation score": "inactive"}
{"sequence": "EASNCFAIRHFENKFAVETLICIERVV", "amyloid nucleation score": "inactive"}
{"sequence": "EASNCFAIRHFENKFAVETLICIERVVHL", "amyloid nucleation score": 3.45}
{"sequence": "EASNCFAIRHFENKFAVETLICIES", "amyloid nucleation score": "inactive"}
{"sequence": "EASNCFAIRHFENKFAVETLICIEWNRYGCDWVR", "amyloid nucleation score": "inactive"}
{"sequence": "EASNCFAIRHFENKFAVETLICIF", "amyloid nucleation score": 5.42}
{"sequence": "EASNCFAIRHFENKFAVETLICIFAHCYIASVSS", "amyloid nucleation score": "inactive"}
{"sequence": "EASNCFAIRHFENKFAVETLICIFEVG", "amyloid nucleation score": 4.67}
{"sequence": "EASNCFAIRHFENKFAVETLICIFEWQ", "amyloid nucleation score": "inactive"}
{"sequence": "EASNCFAIRHFENKFAVETLICIFFGAYKIIFLW", "amyloid nucleation score": "inactive"}
{"sequence": "EASNCFAIRHFENKFAVETLICIFFMNRERVY", "amyloid nucleation score": 3.59}
{"sequence": "EASNCFAIRHFENKFAVETLICIFGNILYLCLGT", "amyloid nucleation score": "inactive"}
{"sequence": "EASNCFAIRHFENKFAVETLICIFGQKQSYRCYS", "amyloid nucleation score": 5.54}
{"sequence": "EASNCFAIRHFENKFAVETLICIFHRRVLIYYTF", "amyloid nucleation score": "inactive"}
{"sequence": "EASNCFAIRHFENKFAVETLICIFISVILTWSLV", "amyloid nucleation score": "inactive"}
{"sequence": "EASNCFAIRHFENKFAVETLICIFLCWMVSGVI", "amyloid nucleation score": "inactive"}
{"sequence": "EASNCFAIRHFENKFAVETLICIFLHLT", "amyloid nucleation score": "inactive"}
{"sequence": "EASNCFAIRHFENKFAVETLICIFLYCV", "amyloid nucleation score": "inactive"}
{"sequence": "EASNCFAIRHFENKFAVETLICIFRASRISVLSL", "amyloid nucleation score": "inactive"}
{"sequence": "EASNCFAIRHFENKFAVETLICIFRLHYRLIAVH", "amyloid nucleation score": "inactive"}
{"sequence": "EASNCFAIRHFENKFAVETLICIFSHCIPNTERM", "amyloid nucleation score": -0.182}
{"sequence": "EASNCFAIRHFENKFAVETLICIFSLIRNCCPIW", "amyloid nucleation score": "inactive"}
{"sequence": "EASNCFAIRHFENKFAVETLICIFSRVWVVKSPE", "amyloid nucleation score": "inactive"}
{"sequence": "EASNCFAIRHFENKFAVETLICIFVM", "amyloid nucleation score": 5.6}
{"sequence": "EASNCFAIRHFENKFAVETLICIFVVDMKGEGRQ", "amyloid nucleation score": 6.81}
{"sequence": "EASNCFAIRHFENKFAVETLICIFYCCV", "amyloid nucleation score": 5.2}
{"sequence": "EASNCFAIRHFENKFAVETLICIFYGTALSFFSL", "amyloid nucleation score": "inactive"}
{"sequence": "EASNCFAIRHFENKFAVETLICIGCA", "amyloid nucleation score": 6.58}
{"sequence": "EASNCFAIRHFENKFAVETLICIGGECLLYSR", "amyloid nucleation score": 5.64}
{"sequence": "EASNCFAIRHFENKFAVETLICIGLFVRM", "amyloid nucleation score": "inactive"}
{"sequence": "EASNCFAIRHFENKFAVETLICIGLGLKPADAFG", "amyloid nucleation score": "inactive"}
{"sequence": "EASNCFAIRHFENKFAVETLICIGLSYTFSHW", "amyloid nucleation score": "inactive"}
{"sequence": "EASNCFAIRHFENKFAVETLICIGSNILVMHASG", "amyloid nucleation score": 5.31}
{"sequence": "EASNCFAIRHFENKFAVETLICIHFKCSISFLCG", "amyloid nucleation score": "inactive"}
{"sequence": "EASNCFAIRHFENKFAVETLICIHFSPYGMGIMV", "amyloid nucleation score": "inactive"}
{"sequence": "EASNCFAIRHFENKFAVETLICIHISLTYVANP", "amyloid nucleation score": 6.17}
{"sequence": "EASNCFAIRHFENKFAVETLICIHPISFIPAMWV", "amyloid nucleation score": 4.3}
{"sequence": "EASNCFAIRHFENKFAVETLICIHRCFIAFVFYQ", "amyloid nucleation score": "inactive"}
{"sequence": "EASNCFAIRHFENKFAVETLICIHTCILINFMVA", "amyloid nucleation score": "inactive"}
{"sequence": "EASNCFAIRHFENKFAVETLICIHVDLPSRFGCE", "amyloid nucleation score": 4.55}
{"sequence": "EASNCFAIRHFENKFAVETLICIHWFGTVICPSS", "amyloid nucleation score": -0.191}
{"sequence": "EASNCFAIRHFENKFAVETLICIIFCTGSSRSLG", "amyloid nucleation score": "inactive"}
{"sequence": "EASNCFAIRHFENKFAVETLICIIFIFGDRECWF", "amyloid nucleation score": "inactive"}
{"sequence": "EASNCFAIRHFENKFAVETLICIIGWF", "amyloid nucleation score": "inactive"}
{"sequence": "EASNCFAIRHFENKFAVETLICIIHMF", "amyloid nucleation score": 4.37}
{"sequence": "EASNCFAIRHFENKFAVETLICIIL", "amyloid nucleation score": 8.2}
{"sequence": "EASNCFAIRHFENKFAVETLICIILIRLIDSIDR", "amyloid nucleation score": 3.27}
{"sequence": "EASNCFAIRHFENKFAVETLICIILIYRGNRMCT", "amyloid nucleation score": "inactive"}
{"sequence": "EASNCFAIRHFENKFAVETLICIIMNVRFDGAN", "amyloid nucleation score": 2.02}
{"sequence": "EASNCFAIRHFENKFAVETLICIIMRGK", "amyloid nucleation score": 0.462}
{"sequence": "EASNCFAIRHFENKFAVETLICIIRRPCNSYVLL", "amyloid nucleation score": "inactive"}
{"sequence": "EASNCFAIRHFENKFAVETLICIISLIVLRWEYV", "amyloid nucleation score": "inactive"}
{"sequence": "EASNCFAIRHFENKFAVETLICIITLLSGWEMCR", "amyloid nucleation score": "inactive"}
{"sequence": "EASNCFAIRHFENKFAVETLICIIVFVNFSFVTC", "amyloid nucleation score": "inactive"}
{"sequence": "EASNCFAIRHFENKFAVETLICIIVTNVCCFERC", "amyloid nucleation score": "inactive"}
{"sequence": "EASNCFAIRHFENKFAVETLICIK", "amyloid nucleation score": "inactive"}
{"sequence": "EASNCFAIRHFENKFAVETLICIKANCSNGDV", "amyloid nucleation score": 3.47}
{"sequence": "EASNCFAIRHFENKFAVETLICIKFFVCG", "amyloid nucleation score": 4.53}
{"test": "amyloid nucleation score relative to library mode (yeast Sup35 reporter selection) (log enrichment difference); higher = more amyloid nucleation; sequences are the first 22 residues of the Bri2 peptide extended by up to 12 random residues", "conditions": "random library (experiment): 3"}
{"sequence": "EASNCFAIRHFENKFAVETLICIEACSNPLDGKG", "amyloid nucleation score": 0}
{"sequence": "EASNCFAIRHFENKFAVETLICIEGGEMILICR", "amyloid nucleation score": "inactive"}
{"sequence": "EASNCFAIRHFENKFAVETLICIELTLGVTMIWP", "amyloid nucleation score": "inactive"}
{"sequence": "EASNCFAIRHFENKFAVETLICIESSIVLILEVR", "amyloid nucleation score": "inactive"}
{"sequence": "EASNCFAIRHFENKFAVETLICIESSPVVDRVQS", "amyloid nucleation score": "inactive"}
{"sequence": "EASNCFAIRHFENKFAVETLICIETCATIVSSGL", "amyloid nucleation score": "inactive"}
{"sequence": "EASNCFAIRHFENKFAVETLICIEWAANDVVNYG", "amyloid nucleation score": 0.468}
{"sequence": "EASNCFAIRHFENKFAVETLICIEYGGLGAGVGE", "amyloid nucleation score": -0.274}
{"sequence": "EASNCFAIRHFENKFAVETLICIFHCVTKSDTLC", "amyloid nucleation score": "inactive"}
{"sequence": "EASNCFAIRHFENKFAVETLICIFVEYMVTNSRW", "amyloid nucleation score": "inactive"}
{"sequence": "EASNCFAIRHFENKFAVETLICIGDCWKKIWCLF", "amyloid nucleation score": "inactive"}
{"sequence": "EASNCFAIRHFENKFAVETLICIGI", "amyloid nucleation score": 1.85}
{"sequence": "EASNCFAIRHFENKFAVETLICIGMVCC", "amyloid nucleation score": 3.46}
{"sequence": "EASNCFAIRHFENKFAVETLICIGRRVLMHVGVR", "amyloid nucleation score": "inactive"}
{"sequence": "EASNCFAIRHFENKFAVETLICIGYCNRSYWLLE", "amyloid nucleation score": 2.24}
{"sequence": "EASNCFAIRHFENKFAVETLICIH", "amyloid nucleation score": "inactive"}
{"sequence": "EASNCFAIRHFENKFAVETLICIHECIFRLYPWM", "amyloid nucleation score": "inactive"}
{"sequence": "EASNCFAIRHFENKFAVETLICIHVVC", "amyloid nucleation score": "inactive"}
{"sequence": "EASNCFAIRHFENKFAVETLICIINRMFHEMAQA", "amyloid nucleation score": "inactive"}
{"sequence": "EASNCFAIRHFENKFAVETLICIKDRGQCMVTIR", "amyloid nucleation score": 5.71}
